Results as given in PubChem BioAssay AID1745853 (National Center for Advancing Translational Sciences (NCATS), 2022).
Some of the results follow. The main result of the screen is listed elsewhere. These columns were measured beside it and carry no call.

What was measured:
Assay in all cases: Primary Screen for Target Class Profiling of Small Molecule Inhibitors of Methyltransferases
[1] = target: Glycine N-methyltransferase (Homo sapiens) (UniProt Q14749); settings: purified enzyme, MTase-Glo SAH luminescence; measured here: GNMT inhibition; at 40 µM; stronger effect = lower value
Procedure, shortened: (§1)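 Each enzyme was assayed with SAM and its substrate. SAH formation detected by MTase-Glo luminescence; single-point 40 uM screen[…].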

[2] = target: Guanidinoacetate N-methyltransferase (Homo sapiens) (UniProt Q14353); settings: purified enzyme, MTase-Glo SAH luminescence; measured here: GAMT inhibition; at 40 µM; stronger effect = lower value
Procedure, shortened: as §1

[3] = target: Histamine N-methyltransferase (Homo sapiens) (UniProt P50135); settings: purified enzyme, MTase-Glo SAH luminescence; measured here: HNMT inhibition; at 40 µM; stronger effect = lower value
Procedure, shortened: as §1

[4] = target: Nicotinamide N-methyltransferase (Homo sapiens) (UniProt P40261); settings: purified enzyme, MTase-Glo SAH luminescence; measured here: NNMT inhibition; at 40 µM; stronger effect = lower value
Procedure, shortened: as §1

[5] = target: Phenylethanolamine N-methyltransferase (Homo sapiens) (UniProt P11086); settings: purified enzyme, MTase-Glo SAH luminescence; measured here: PNMT inhibition; at 40 µM; stronger effect = lower value
Procedure, shortened: as §1
% is set by controls: 0 for no effect and ±100 for the full control effect.

CCOC(=O)c1cc2n(n1)CC(C)(C(=O)NCCCOC)N(c1ccc(Cl)cc1)C2=O (stereo not drawn)
activity change, negative = inhibition [1]: 6.62%
activity change, negative = inhibition [2]: 0%
activity change, negative = inhibition [3]: 5.09%
activity change, negative = inhibition [4]: 10.3%
activity change, negative = inhibition [5]: 5.23%

O=C(O)CCC(=O)N1CCC2(CC1)C(=O)NCN2C(=O)Cc1c[nH]c2ccccc12
activity change, negative = inhibition [1]: -3.06%
activity change, negative = inhibition [2]: -2.19%
activity change, negative = inhibition [3]: -2.68%
activity change, negative = inhibition [4]: -7.83%
activity change, negative = inhibition [5]: 9.67%

N#Cc1cccnc1N1CCN(c2nccc(N3CCCC(O)C3)n2)CC1 (stereo not drawn)
activity change, negative = inhibition [1]: -5.5%
activity change, negative = inhibition [2]: -1.5%
activity change, negative = inhibition [3]: -5.51%
activity change, negative = inhibition [4]: -3.29%
activity change, negative = inhibition [5]: -1.18%

CC1CCCC(NC(=O)C2(C)Cn3c(cc4sccc43)C(=O)N2Cc2ccc(Cl)cc2)C1C (stereo not drawn)
activity change, negative = inhibition [1]: -8%
activity change, negative = inhibition [2]: -0.758%
activity change, negative = inhibition [3]: -4.18%
activity change, negative = inhibition [4]: -1.67%
activity change, negative = inhibition [5]: -4.11%

CCC(C)NC(=O)c1ccc2c(=O)n(C(C)C)c3nn(Cc4ccc(F)cc4)c(=O)n3c2c1 (stereo not drawn)
activity change, negative = inhibition [1]: -5.26%
activity change, negative = inhibition [2]: 2.5%
activity change, negative = inhibition [3]: -3.89%
activity change, negative = inhibition [4]: -3.52%
activity change, negative = inhibition [5]: -2.27%

O=c1cc(-c2cccnc2)nc(-c2cccc(CN3CCNCC3)c2)[nH]1
activity change, negative = inhibition [1]: -2.95%
activity change, negative = inhibition [2]: 3.32%
activity change, negative = inhibition [3]: -9.04%
activity change, negative = inhibition [4]: -3.38%
activity change, negative = inhibition [5]: 8.47%

CC(C)OC(=O)C(C)(C)Oc1ccc(C(=O)c2ccc(Cl)cc2)cc1
activity change, negative = inhibition [1]: 10.2%
activity change, negative = inhibition [2]: 14.8%
activity change, negative = inhibition [3]: 14.8%
activity change, negative = inhibition [4]: -4.63%
activity change, negative = inhibition [5]: 1.18%

Cc1ccc(C(c2sc3nc(-c4ccco4)nn3c2O)N2CCCC2)cc1 (stereo not drawn)
activity change, negative = inhibition [2]: 0.678%
activity change, negative = inhibition [4]: -12.4%
activity change, negative = inhibition [5]: 3.28%

O=C(NC1CCCC1)NC1CCN(c2nc3ncccc3o2)C1 (stereo not drawn)
activity change, negative = inhibition [1]: -7.14%
activity change, negative = inhibition [2]: -6.75%
activity change, negative = inhibition [3]: -7.12%
activity change, negative = inhibition [4]: -12.1%
activity change, negative = inhibition [5]: -8.66%

COc1ccc(CN2C(=O)c3cc4sccc4n3CC2(C)C(=O)NC2CCCC(C)C2C)cc1 (stereo not drawn)
activity change, negative = inhibition [1]: -3.01%
activity change, negative = inhibition [2]: 1.9%
activity change, negative = inhibition [3]: -4.17%
activity change, negative = inhibition [4]: 0.581%
activity change, negative = inhibition [5]: -10.6%

C[C@@H]1O[C@@H](O[C@H]2[C@@H](OC(=O)[C@]34CCC(C)(C)CC3C3=CCC5[C@@]6(C)C[C@H](O)[C@H](O[C@@H]7O[C@H](CO)[C@@H](O)[C@H](O)[C@H]7O[C@@H]7OC[C@@H](O)[C@H](O)[C@H]7O)[C@@](C)(C(=O)O)C6CC[C@@]5(C)[C@]3(C)CC4)OC[C@H](O)[C@@H]2O)[C@H](O)[C@H](O)[C@H]1O[C@@H]1OC[C@@H](O)[C@H](O)[C@H]1O (stereo partly drawn)
activity change, negative = inhibition [1]: 0.944%
activity change, negative = inhibition [2]: -1.16%
activity change, negative = inhibition [3]: 10.1%
activity change, negative = inhibition [4]: -13.2%
activity change, negative = inhibition [5]: 7.07%

COc1ccccc1CNC(=O)C1(C)Cn2nc(-c3ccccc3)cc2C(=O)N1c1cccc(SC)c1 (stereo not drawn)
activity change, negative = inhibition [1]: 2.03%
activity change, negative = inhibition [2]: 0.195%
activity change, negative = inhibition [3]: 5.72%
activity change, negative = inhibition [4]: 3.25%
activity change, negative = inhibition [5]: -3.02%

COC(=O)c1ncn2c1C(=O)N(Cc1ccc(OC)cc1OC)C(C)(C(=O)NC1CCCC1)C2 (stereo not drawn)
activity change, negative = inhibition [1]: 3.12%
activity change, negative = inhibition [2]: 1.77%
activity change, negative = inhibition [3]: 7.62%
activity change, negative = inhibition [4]: 3.27%
activity change, negative = inhibition [5]: 1.44%

CC(C)CCNC(=O)C1c2c(n(C)c3ccccc23)SCC(=O)N1c1ccc2c(c1)OCO2 (stereo not drawn)
activity change, negative = inhibition [1]: -2.33%
activity change, negative = inhibition [2]: -1.43%
activity change, negative = inhibition [3]: 1.79%
activity change, negative = inhibition [4]: -6.63%
activity change, negative = inhibition [5]: -6.31%

COc1cc2c(cc1OC)-c1[nH]nc(Nc3cccc(F)c3)c1C2
activity change, negative = inhibition [1]: -11.6%
activity change, negative = inhibition [2]: 7.62%
activity change, negative = inhibition [3]: -2.09%
activity change, negative = inhibition [4]: -24.1%
activity change, negative = inhibition [5]: -3.46%

O=C(Nc1cccc(-c2ccc(N3CCOCC3)nn2)c1)Nc1ccc(F)cc1F
activity change, negative = inhibition [1]: -13.7%
activity change, negative = inhibition [2]: -16.4%
activity change, negative = inhibition [3]: -14.2%
activity change, negative = inhibition [4]: -26.4%
activity change, negative = inhibition [5]: -18.8%

OC(CNCCc1c[nH]c2ccccc12)Cn1c2ccccc2c2ccccc21 (stereo not drawn)
activity change, negative = inhibition [1]: -2.91%
activity change, negative = inhibition [2]: 6.92%
activity change, negative = inhibition [3]: -15%
activity change, negative = inhibition [4]: -20.8%
activity change, negative = inhibition [5]: -5.3%

CCCn1c(=O)c2ccccc2n2c(=O)n(CC(=O)NCc3ccccc3)nc12
activity change, negative = inhibition [1]: 2.76%
activity change, negative = inhibition [2]: 1.2%
activity change, negative = inhibition [3]: 3.07%
activity change, negative = inhibition [4]: -7.11%
activity change, negative = inhibition [5]: 1.76%

CC(C)Cn1c(=O)c2ccc(C(=O)NC3CCCC3)cc2n2c(SCC(=O)NC3CCCC3)nnc12
activity change, negative = inhibition [1]: 1.33%
activity change, negative = inhibition [2]: 0%
activity change, negative = inhibition [3]: 2.39%
activity change, negative = inhibition [4]: 0.878%
activity change, negative = inhibition [5]: 4.02%

CC(=O)O[C@H]1C[C@@H](O)C(C)(C)C2C[C@@H](OC(C)=O)[C@]3(C)C(CC[C@@]4(C)[C@H](c5ccoc5)OC(=O)[C@H]5O[C@]543)[C@]21C (stereo partly drawn)
activity change, negative = inhibition [1]: 0.518%
activity change, negative = inhibition [2]: 0.064%
activity change, negative = inhibition [3]: 8.92%
activity change, negative = inhibition [4]: -11.8%
activity change, negative = inhibition [5]: 4.62%

Cc1ccc(-c2n[nH]n3c2nc(=O)c2ccc(C(=O)NCc4ccc(F)cc4)cc23)cc1
activity change, negative = inhibition [1]: -12.2%
activity change, negative = inhibition [2]: -2.4%
activity change, negative = inhibition [3]: -1.37%
activity change, negative = inhibition [4]: -8.37%
activity change, negative = inhibition [5]: -4.78%

CC(C)CC(c1c(O)c(C=O)c(O)c(C=O)c1O)C1CCC(C)(O)C2CC(C(C)(C)O)CCC12C (stereo not drawn)
activity change, negative = inhibition [1]: 2.9%
activity change, negative = inhibition [2]: 2.73%
activity change, negative = inhibition [3]: 13.5%
activity change, negative = inhibition [4]: -23%
activity change, negative = inhibition [5]: 10.1%

CN(C)c1nc(Cc2ccc(NC(=O)c3ccc(C(F)(F)F)cc3)cc2)nc(N(C)C)c1CC(=O)O
activity change, negative = inhibition [1]: 5.41%
activity change, negative = inhibition [2]: -2.92%
activity change, negative = inhibition [3]: 8.96%
activity change, negative = inhibition [4]: -16.6%
activity change, negative = inhibition [5]: -0.001%

CC(C)C(=O)N1CCN(c2nc3c(s2)CC(C(=O)NCc2ccco2)CC3)CC1 (stereo not drawn)
activity change, negative = inhibition [1]: -1.59%
activity change, negative = inhibition [2]: -1.39%
activity change, negative = inhibition [3]: -0.291%
activity change, negative = inhibition [4]: 1.53%
activity change, negative = inhibition [5]: -0.918%

CCCn1c(=O)c2ccc(Cl)cc2n2c(SCc3ccc(C)cc3)nnc12
activity change, negative = inhibition [1]: -8.51%
activity change, negative = inhibition [2]: 1.33%
activity change, negative = inhibition [3]: 2.87%
activity change, negative = inhibition [4]: 1.58%
activity change, negative = inhibition [5]: 1.24%

O=C(c1ccc2ccccc2n1)N1CCC(n2cc(-c3nc(-c4ccccc4)no3)nn2)C1 (stereo not drawn)
activity change, negative = inhibition [1]: -8.99%
activity change, negative = inhibition [2]: 1.66%
activity change, negative = inhibition [3]: 0.026%
activity change, negative = inhibition [4]: -3.75%
activity change, negative = inhibition [5]: -15.4%

O=C1CC(c2ccc([N+](=O)[O-])cc2)=NN1c1ccccc1
activity change, negative = inhibition [1]: -8.69%
activity change, negative = inhibition [2]: -1.11%
activity change, negative = inhibition [3]: 4.38%
activity change, negative = inhibition [4]: -14.3%
activity change, negative = inhibition [5]: 4.1%

CC(C)CN1C2CCC1CN(C(=O)Nc1ccccc1F)C2
activity change, negative = inhibition [1]: -5.81%
activity change, negative = inhibition [2]: -6.13%
activity change, negative = inhibition [3]: -4.27%
activity change, negative = inhibition [4]: -7.69%
activity change, negative = inhibition [5]: -10.9%

COc1ccc(CN2C(=Nc3ccc(Cl)cc3)S[C@H]3[C@@H]2[C@@H](O)[C@H](O)C[C@@H]3C(N)=O)cc1
activity change, negative = inhibition [1]: -0.702%
activity change, negative = inhibition [2]: 3.03%
activity change, negative = inhibition [3]: 3.74%
activity change, negative = inhibition [4]: 1.05%
activity change, negative = inhibition [5]: 2.6%
